# In the supplement of paper PMC3334620:
# Whole data set: some 33,000 sequences, median “E-score (-0.5 to 0.5)” near -0.041, cut for the highest 2% near 0.37. This is one part of the list.
# Biological target: T1, Ecm22 (UniProt Q05958)
# T1 sequence: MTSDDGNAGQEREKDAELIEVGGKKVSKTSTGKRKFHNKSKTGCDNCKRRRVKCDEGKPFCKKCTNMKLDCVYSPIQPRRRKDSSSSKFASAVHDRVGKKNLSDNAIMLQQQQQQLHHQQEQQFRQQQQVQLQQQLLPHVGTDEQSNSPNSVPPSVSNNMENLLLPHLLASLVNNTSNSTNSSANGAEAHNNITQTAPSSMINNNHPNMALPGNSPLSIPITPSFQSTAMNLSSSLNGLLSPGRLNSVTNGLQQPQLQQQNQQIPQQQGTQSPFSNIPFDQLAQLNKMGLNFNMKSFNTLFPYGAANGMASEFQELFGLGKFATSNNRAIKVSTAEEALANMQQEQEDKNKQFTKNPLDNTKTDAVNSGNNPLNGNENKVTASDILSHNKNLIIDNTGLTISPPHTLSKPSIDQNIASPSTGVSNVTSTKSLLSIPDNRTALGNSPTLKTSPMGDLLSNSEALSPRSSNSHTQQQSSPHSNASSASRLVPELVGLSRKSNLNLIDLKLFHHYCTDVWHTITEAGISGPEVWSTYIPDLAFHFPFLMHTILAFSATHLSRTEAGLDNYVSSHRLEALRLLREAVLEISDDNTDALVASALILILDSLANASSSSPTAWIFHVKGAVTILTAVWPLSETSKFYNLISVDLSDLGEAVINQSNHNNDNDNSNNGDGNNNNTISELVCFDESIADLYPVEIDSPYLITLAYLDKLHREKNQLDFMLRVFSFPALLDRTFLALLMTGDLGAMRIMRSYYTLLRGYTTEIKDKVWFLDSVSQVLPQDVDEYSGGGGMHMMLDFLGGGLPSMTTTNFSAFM
# Experiment: PBM E-score (8-mer binding enrichment) (E-score (-0.5 to 0.5)); higher = stronger / more preferred TF binding; most listed sequences are background and not binding sites
# Conditions: protein concentration: 200 nM; construct: GST-full length
# Method: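 Universal 'all 10-mer' protein binding microarrays (Agilent AMADID 015681) probed with GST-tagged S. cerevisiae TFs (full-length or DBD) made by in vitro transcription/translation (PURExpress), about 100-200 nM. Bound TF was detected with fluorescent anti-GST. Each ungapped 8-mer (which stands for itself and its reverse complement) is scored by the PBM enrichment score (E-score), a modified Wilcoxon-Mann-Whitney statistic from -0.5 to +0.5, computed with the Universal PBM Analysis Suite. Scale: above 0.35 generally sequence-specific binding.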
row,Sequence,PBM E-score
1,AAAACCTC,0.0279
2,GAGGGAGA,-0.0926
3,CGCCCTGC,0.0489
4,ATTAAGCA,-0.11
5,CAGTGCTC,-0.155
6,TAGAACGA,0.429
7,ACTCCGCC,-0.255
8,ACTCACCC,-0.187
9,AATATGTA,0.029
10,AGGTTCGC,0.112
11,ACGACAGG,0.339
12,TGAACGAA,0.434
13,CAAGTGAA,-0.154
14,ATACACCC,0.0584
15,GGAGTCCA,-0.281
16,TAATTAAA,-0.0387
17,CATCCCTC,-0.237
18,ATCATTGG,-0.215
19,TAAATGCA,0.0358
20,AGCGTTGC,0.123
21,AAGAGAAG,-0.0866
22,TAATCGCA,0.215
23,AGTCAGAG,-0.269
24,AGTGTTGC,-0.165
25,CAACGGCG,-0.0255

row,Sequence,PBM E-score
1,ACTCGGGG,-0.152
2,CGGCAAAC,0.116
3,ACATCGCT,0.0229
4,GGACTGTA,-0.208
5,AGGTTCCA,-0.318
6,CCTCCAGA,-0.236
7,AATGCGGT,-0.0656
8,AGGCAGAT,-0.115
9,CGTTTTAG,0.114
10,GGACCACA,-0.124
11,GCTCAGGA,-0.107
12,AAAGTGTT,-0.0118
13,ACGAAGTA,0.354
14,ATTATCGC,0.00427
15,CCAATTCC,-0.205
16,AACTGTGG,-0.238
17,CGGAAAAA,0.254
18,AGGGTATG,-0.0039
19,ATGGACAA,-0.0186
20,AGGCAGGC,-0.12
21,ACCAGAAC,0.0471
22,AGAAAGGA,-0.244
23,ATTTAACA,-0.0508
24,AATCAAAT,-0.143
25,GAGAGGAA,-0.048

row,Sequence,PBM E-score
1,CGCGTCAG,-0.123
2,ATACTCAT,0.0714
3,ACCGGGGA,-0.176
4,ACACTGCA,-0.165
5,ACGTTTGG,0.209
6,AAGACGAC,0.0418
7,AGCCAACC,0.0507
8,TGAGATCA,-0.0722
9,CTTCTTCC,-0.144
10,CTAGAGTC,-0.239
11,AGAGACTC,0.051
12,CGAGTGCG,0.201
13,AAGGCATC,-0.0118
14,CTAAAGCA,-0.0375
15,ATCAGGTG,-0.178
16,ATGTATCG,0.254
17,GTGTAAAC,0.111
18,AAGCCCAG,-0.109
19,ATAGCCTG,-0.281
20,AAGGCAAT,-0.0603
21,GGTGTTGA,-0.168
22,CGCCCCGC,-0.0353
23,GACTGCAA,-0.268
24,ACACATCC,-0.0188
25,ACATAGAC,-0.117

row,Sequence,PBM E-score
1,TCCAATAA,-0.0272
2,AACGTACT,0.206
3,AAAGTGCT,-0.284
4,AAAAGGCA,-0.201
5,ATACTGGA,0.00166
6,AGCACCGA,0.11
7,AAAGGATT,-0.164
8,CAACCACA,-0.0795
9,CTGACAAA,0.0148
10,ATTAAGAC,-0.0694
11,CCTGATTC,-0.132
12,CGCATAAA,0.164
13,ATATCACG,0.0459
14,GCACTCAA,-0.15
15,ACCCCGGA,-0.136
16,TGTACACA,0.0209
17,GCACGTGA,-0.0463
18,AACTTAAC,0.109
19,ACTACTTG,-0.187
20,ATTTCTAC,0.139
21,ATACCGTG,-0.00541
22,CAATCCCG,-0.012
23,GAAGCACA,-0.0546
24,CCCCGGGG,0.129
25,GGTTGAAC,0.0859

row,Sequence,PBM E-score
1,ACCTGGGC,-0.195
2,AAGAATCA,-0.299
3,CATTAACG,0.182
4,ACACATGT,0.00831
5,GCGTGTCC,0.104
6,ATCCGCTA,0.0928
7,CATTCAGA,-0.297
8,ACGGAGCG,0.308
9,AACAGAAT,-0.181
10,GTATTCAA,0.0186
11,GAAAGAGA,-0.0205
12,CTTCTAGA,-0.161
13,ACCGTCCC,-0.258
14,ATCCGCTG,0.0117
15,AACTTCCG,0.133
16,ACTTTAAT,-0.144
17,ATGCAGTA,0.0758
18,ACTCGTGA,0.135
19,AACGTTCG,0.217
20,CGTCCCGC,-0.104
21,AAGATAGC,-0.149
22,AAGCTTTG,-0.0752
23,TCAGGTCA,-0.287
24,ATGTGAGC,-0.111
25,CTCGGCAG,-0.043

row,Sequence,PBM E-score
1,AAGTGCGT,-0.0022
2,CCGGGTGA,-0.235
3,AAGCACCT,-0.264
4,GCATAAAA,0.0649
5,CACCTGCG,-0.22
6,ATATTGGC,-0.123
7,TACATGAA,0.0426
8,CACCTCGG,0.113
9,ACTGGACT,-0.271
10,GGAACTCC,-0.0353
11,AGGACATA,-0.124
12,GTATCCTA,-0.0543
13,GACATAAA,0.0336
14,GTCCTGTA,-0.0746
15,CACAGACG,-0.0539
16,GTAAATAA,0.127
17,TAGTTTCA,-0.0809
18,GACAGTCA,-0.0371
19,AGTAGCTC,-0.0697
20,ATATGCCG,0.181
21,GAGAAGAA,0.0852
22,TGCCAGAA,-0.123
23,AGCGATTG,0.0712
24,ACTGAGAG,-0.08
25,GCCCGTCC,-0.279

row,Sequence,PBM E-score
1,ACTTCTAA,-0.139
2,ACGGTACG,0.436
3,TACTTGCA,-0.00207
4,AGGTTCTG,-0.121
5,AGTCGAAA,0.066
6,CCTACATA,-0.178
7,GGGTCTGA,-0.385
8,GTGGCATA,-0.0686
9,GATACACA,-0.0375
10,CATTTTGG,-0.169
11,AGAAATAG,-0.0748
12,CTAAATCA,-0.0135
13,GTACCCGA,0.225
14,ACACTGCT,-0.186
15,CTCTCCGA,-0.0719
16,TTCTCAAA,0.0548
17,CCAGTTTC,-0.098
18,CACCCAGG,-0.0172
19,AAGCTAAG,-0.223
20,CCACGGAG,-0.163
21,TCCAAGAA,-0.14
22,ATTTTGGG,-0.125
23,CAAACTTA,-0.0805
24,CACATACA,-0.075
25,GGTCGTCA,0.0226

row,Sequence,PBM E-score
1,AACTACCA,-0.0898
2,AAGCTTAA,0.014
3,GCTCTGCA,-0.142
4,CACCACGG,-0.358
5,CTAAACCC,-0.107
6,ATTATTAG,0.234
7,GGTCTCAA,-0.239
8,CGACACAG,0.17
9,AGCATGCT,-0.118
10,CCCAACAA,-0.0191
11,CTAGATCC,0.0224
12,CCTAAACC,-0.00691
13,GCCTGTGA,-0.362
14,ACGGTGAA,0.237
15,GTCGTCAC,0.084
16,AGCACTTA,0.0258
17,ATTAGGTC,0.125
18,ACCGCCGG,-0.155
19,GAATTAAA,-0.0485
20,GTTGTTCA,0.168
21,TAGTACTA,0.0335
22,CTACGTTA,0.0833
23,GACCCTTA,-0.121
24,AAGATTAA,-0.0609
25,GAAACCTA,-0.25

row,Sequence,PBM E-score
1,CATTCCTC,0.0616
2,AAGCTACA,-0.1
3,CATCACGC,0.0605
4,ATGCTTAA,-0.0486
5,GCGTTCAC,0.0595
6,ATGTTGCC,-0.0387
7,CAAGCCTG,-0.201
8,ACTACAGT,-0.0516
9,AGCGGCCC,-0.183
10,AAATGCGT,0.104
11,TCATGTAA,-0.00199
12,GAGTCTGA,-0.0236
13,ATTTGTAC,0.0801
14,CATAGACA,0.0648
15,AATGCAAG,-0.181
16,CGTCTCAC,0.0419
17,CGAGAGAC,0.0669
18,CAATCCGC,-0.0795
19,ACTAAGAT,0.0907
